{"source": "PubChem BioAssay AID504832", "about": "(National Center for Advancing Translational Sciences (NCATS), 2011)", "note": "Out of some 310,000 compounds screened, about 18,000 (5.8%) were called active. The shares of active, inactive and inconclusive entries below differ from those in the screen. The call rests on the fitted dose curve; in most records, active means well fitted inhibition curve with a large enough effect; inconclusive means small, poorly fitted or top-dose-only effect, or another doubt; inactive means no such curve, though single readings can be large or run the other way. No potency is given beside an inconclusive call; the fits are too rough. Potency means the concentration at half of the fitted maximal effect; tags describe the fitted curve by direction and shape.", "data": [{"assay": "Primary qHTS for delayed death inhibitors of the malarial parasite plastid, 48 hour incubation", "conditions": "P. falciparum luciferase growth in erythrocytes; series mostly up to 28.7 µM", "outline": "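Compounds are pin-transferred into medium, infected erythrocytes (2% hematocrit, 0.1% parasitemia final) are added, and plates sit one parasite generation at 37 C in 5% CO2. Detection reagent is then added and luminescence measured.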", "values": [{"compound": "CCN(CC)c1ccc(NC(=O)CSc2nc(C3CC3)nc3ccccc23)cc1C", "Potency": "inconclusive [inhibitor, single point]"}, {"compound": "COc1ccc([C@H]2Oc3cc(O)cc(O)c3C(=O)C2[C@@H]2C(=O)c3c(O)cc(O)cc3O[C@@H]2c2ccc(OC)cc2)cc1", "note": "(stereo not given in full)", "Potency": "inconclusive [inhibitor, single point]"}, {"compound": "Cc1cc(NC(=O)c2coc(=O)c(Br)c2)ccc1C(C)C", "Potency": "inconclusive [inhibitor, full curve]"}, {"compound": "Cc1cccc(-n2c(C)cc(C(=O)NC3CCCCC3)c2C)c1", "Potency": "inconclusive [inhibitor, single point]"}, {"compound": "O=C(CN1C(=O)C2CC=CCC2C1=O)Nc1cc(C(F)(F)F)ccc1N1CCCC1", "note": "(stereo not given)", "Potency": "inconclusive [inhibitor, single point]"}, {"compound": "CCOC(=O)c1cc2c(=O)n3ccccc3nc2n(CC(C)C)c1=NC(=O)c1c(-c2c(F)cccc2Cl)noc1C", "Potency": "active: 2.33 µM"}, {"compound": "Cc1nn2c(c1-c1ccc(Cl)cc1)N=C(c1ccco1)CC2c1ccccc1", "note": "(stereo not given)", "Potency": "inconclusive [inhibitor, partial curve, poor fit]"}, {"compound": "CCOC(=O)c1ccccc1NC(=O)COC(=O)C(CCSC)NC(=O)COc1ccccc1", "note": "(stereo not given)", "Potency": "inactive"}, {"compound": "Cc1ccc2c(CC(=O)Nc3ccc(N4CCN(C)CC4)cc3C)coc2c1", "Potency": "inconclusive [inhibitor, single point]"}, {"compound": "CCCC1CC(C(=O)NC(C(C)Cl)C2OC(SC)C(O)C(O)C2O)N(C)C1", "note": "(stereo not given)", "Potency": "active: 0.0828 µM"}, {"compound": "CSc1nncc(-c2ccccc2)n1", "Potency": "inconclusive [inhibitor, single point]"}, {"compound": "O=C1CC(C(=O)N2CCOCC2)C2(CCCC2)O1", "note": "(stereo not given)", "Potency": "inactive"}, {"compound": "COC(=O)/C=C/c1ccccc1CN1[C@@H](CC(=O)OC)c2ccccc2S1(=O)=O", "Potency": "inconclusive [inhibitor, partial curve, poor fit]"}, {"compound": "Cc1cc(OCC(=O)NCC(O)c2ccccc2)c2c(C)c(C)c(=O)oc2c1", "note": "(stereo not given)", "Potency": "inconclusive [inhibitor, single point]"}, {"compound": "CCOC(=O)/C(=N\\Nc1ccccc1[N+](=O)[O-])c1csc(Nc2ccccc2)n1", "Potency": "inconclusive [inhibitor, single point]"}, {"compound": "COc1ccc(F)cc1C(=O)C1CCCN(Cc2ccc(O)cc2)C1", "note": "(stereo not given)", "Potency": "inconclusive [inhibitor, single point]"}, {"compound": "COc1ccc(CCC(C)Nc2cccc(F)c2)cc1", "note": "(stereo not given)", "Potency": "inconclusive [inhibitor, partial curve, poor fit]"}, {"compound": "Cc1ccc2c(c1)N=C(c1ccccc1)CC(C(Cl)Cl)=N2", "Potency": "inactive"}, {"compound": "COCc1ccc(C(=O)N(C)C2CCCN(Cc3ccccc3F)C2)o1", "note": "(stereo not given)", "Potency": "inconclusive [inhibitor, single point]"}, {"compound": "Cc1ccc(C(C(=O)NC2CCCC2)N2CCCC(C)C2)cc1", "note": "(stereo not given)", "Potency": "inactive"}, {"compound": "CCc1ccc(C(=O)c2cncc(Br)c2)cc1", "Potency": "inconclusive [inhibitor, partial curve, poor fit]"}, {"compound": "CC1=C(C#N)C(c2cn(-c3ccccc3)nc2-c2cccs2)C(C#N)=C(C)N1", "Potency": "active: 1.65 µM"}, {"compound": "C=CCOC(=O)C1=C(C)N=C2SCCC(=O)N2C1c1cccs1", "note": "(stereo not given)", "Potency": "inconclusive [inhibitor, partial curve, poor fit]"}, {"compound": "N#Cc1ccc(CN2CCN(C(=O)CN3C(=O)NC4(CCCC4)C3=O)CC2)cc1", "Potency": "inactive"}, {"compound": "CCN(CC)P(=O)(Nc1cccc(C(F)(F)F)c1)c1ccc(N(C)C)cc1NC(=O)c1ccco1", "note": "(stereo not given)", "Potency": "active: 2.08 µM"}, {"compound": "C#CCOCCOCCOCCNc1nc(N2CCN(C(=O)[C@H]([C@@H](C)CC)n3cc([C@@H](N)Cc4ccc(O)cc4)nn3)CC2)nc(N2CCN(C(=O)[C@H](CCCCN)n3cc([C@@H](N)CC(C)C)nn3)CC2)n1", "Potency": "inactive"}, {"compound": "CCOC(=O)CSc1nc2ccccc2c(=O)n1C1CCCC1", "Potency": "inconclusive [inhibitor, partial curve, poor fit]"}, {"compound": "CC(C)N1C(=O)CN(C2CCCCCC2)C(=O)C1c1ccccc1F", "note": "(stereo not given)", "Potency": "inconclusive [inhibitor, single point]"}, {"compound": "Cc1cc(Cl)c(OCCOCCN2CCC(C)CC2)c(Br)c1", "Potency": "inconclusive [inhibitor, single point]"}, {"compound": "CN(C)CCNC(=S)Nc1ccc(F)c(F)c1F", "Potency": "inactive"}, {"compound": "CN(C)S(=O)(=O)c1ccc2[nH]cc(/C=C/c3nc4ccccc4c(=O)n3-c3ccccc3)c2c1", "Potency": "active: 9.28 µM"}, {"compound": "O=C(O)c1cc(-c2ccc3ccccc3c2)nc2ccc(F)cc12", "Potency": "inconclusive [inhibitor, single point]"}, {"compound": "COc1cccc(NC(=O)CN(C)C(=O)/C=C/c2cn(-c3ccccc3)nc2-c2cccs2)c1", "Potency": "inconclusive [inhibitor, single point]"}, {"compound": "Cc1cc(C)c(S(=O)(=O)c2ccc(C(C)(C)C)cc2)c(Cl)n1", "Potency": "inconclusive [inhibitor, single point]"}, {"compound": "O=C(CCN1CCN(c2ccccc2)CC1)NNC(=S)Nc1ccccc1Cl", "Potency": "inactive"}, {"compound": "CCC(C)N(C(=O)Cn1nnc2ccccc21)C(C(=O)NCc1ccco1)c1cccc(OC)c1", "note": "(stereo not given)", "Potency": "inactive"}, {"compound": "C/C(N)=C(/C#N)C(=O)CSc1nc2ccccc2[nH]1", "Potency": "inactive"}, {"compound": "CCC(c1nnnn1Cc1ccccc1)N(Cc1ccco1)Cc1cc2cc(OC)ccc2[nH]c1=O", "note": "(stereo not given)", "Potency": "inconclusive [inhibitor, partial curve]"}, {"compound": "O=C(CCNC(=O)c1ccc([N+](=O)[O-])cc1)Nc1nccs1", "Potency": "inactive"}, {"compound": "Cc1ccc(-n2c(=O)c3cc4c(=O)n(-c5ccc(C)c(C)c5)c(=O)c4c(C(=O)c4ccc(C(=O)O)cc4)c3c2=O)cc1C", "Potency": "inconclusive [inhibitor, single point]"}, {"compound": "CCN(C(=O)Cn1nc(C)c([N+](=O)[O-])c1C)c1c(N)n(Cc2ccccc2)c(=O)[nH]c1=O", "Potency": "inconclusive [inhibitor, single point]"}, {"compound": "N#CCn1cc(/C=N/NC(=O)c2cc3c(ccc4ccccc43)o2)c2ccccc21", "Potency": "active: 9.28 µM"}, {"compound": "CCOC(=O)C1(Cc2ccc(OC)cc2)CCN(C(=O)CN2CCOC2=O)CC1", "Potency": "inactive"}, {"compound": "OC1=C(O)c2nc3ccccc3nc21", "Potency": "inconclusive [inhibitor, partial curve, poor fit]"}, {"compound": "COc1ccc(N2CC(C(=O)N3CCC(c4nc5ccccc5[nH]4)CC3)CC2=O)cc1", "note": "(stereo not given)", "Potency": "inconclusive [inhibitor, partial curve]"}, {"compound": "CCCN(CCC)S(=O)(=O)c1ccc(C(=O)N2CC3CCC(CC3)C2)cc1", "Potency": "inconclusive [inhibitor, partial curve]"}, {"compound": "Cn1c(=O)n(Cc2ccc(F)cc2)c(=O)c2c1nc1n2CCN1Cc1ccco1", "Potency": "inconclusive [inhibitor, partial curve, poor fit]"}, {"compound": "Cc1c(Cl)cccc1NC(=O)CNC(=O)c1ccccc1F", "Potency": "inactive"}, {"compound": "O=S(=O)(c1ccc(Oc2ncnc3scc(-c4ccccc4)c23)cc1)N1CCOCC1", "Potency": "inconclusive [inhibitor, partial curve]"}, {"compound": "O=C(COc1ccc(Cl)cc1Br)NC(=O)NC1CCCC1", "Potency": "inactive"}, {"compound": "CC1Cc2cc(/C(O)=C3/C(=O)C(=O)N(CCCn4ccnc4)C3c3cccnc3)ccc2O1", "note": "(stereo not given)", "Potency": "inactive"}, {"compound": "CC(C)[C@H](NC(=O)c1ccccc1)C(=O)OCC(=O)c1ccc(S(=O)(=O)N2CCCCC2)cc1", "Potency": "inconclusive [inhibitor, single point]"}, {"compound": "CCOc1ccc(S(=O)(=O)N2CCC(C(=O)Nc3cc(S(C)(=O)=O)ccc3Cl)CC2)cc1", "Potency": "active: 10.4 µM"}, {"compound": "CCCc1nc2ccccc2c(=O)n1/N=C/c1ccc(O)cc1", "Potency": "active: 11.7 µM"}, {"compound": "O=C(CCN1C(=O)c2ccccc2S1(=O)=O)NCc1ccco1", "Potency": "inactive"}, {"compound": "Nc1nc(COC(=O)C2CC(=O)N(Cc3ccccc3Cl)C2)nc(Nc2ccccc2)n1", "note": "(stereo not given)", "Potency": "inactive"}, {"compound": "COc1ccc(NC(=O)c2c(NC(=O)CNCC(C)C)sc3c2CCC3)c(OC)c1", "Potency": "active: 9.28 µM"}, {"compound": "Cc1c[nH]c(=O)c([N+](=O)[O-])c1", "Potency": "inactive"}, {"compound": "Cc1c(C(=O)NCc2c(F)cc(F)cc2F)oc2ccc(S(=O)(=O)N3CCOCC3)cc12", "Potency": "inconclusive [inhibitor, partial curve]"}, {"compound": "COc1ccccc1C(=O)N(Cc1ccco1)C1CCS(=O)(=O)C1", "note": "(stereo not given)", "Potency": "inactive"}, {"compound": "COC(=O)c1ccc(N2C(=O)C3CC(C)=C(C)CC3C2=O)cc1", "note": "(stereo not given)", "Potency": "inconclusive [inhibitor, partial curve, poor fit]"}, {"compound": "COc1ccccc1NC(=O)NCCN1CCN(c2cccc(Cl)c2)CC1", "Potency": "inactive"}, {"compound": "O=C(O)c1cncc(C#CCC2CCCCC2)c1", "Potency": "inactive"}, {"compound": "CC(C)(C)c1ccc(NC(=O)CNC2CCCc3ccccc32)cc1", "note": "(stereo not given)", "Potency": "inconclusive [inhibitor, partial curve]"}, {"compound": "Cc1ccc(CNC(=O)C2(NC(=O)Nc3ccc(C)cc3)CCCCC2)cc1", "Potency": "inconclusive [inhibitor, partial curve]"}, {"compound": "CCOc1ccc(CN2CCC(C(=O)N3CCN(c4ccccc4F)CC3)CC2)cc1OC", "Potency": "inconclusive [inhibitor, single point]"}, {"compound": "CC1(C)CC(=O)C=C(Nc2ccccc2N)C1", "Potency": "inactive"}, {"compound": "N#Cc1cccc(C#N)c1N1CCC(C#N)CC1", "Potency": "inactive"}, {"compound": "C/C(CC(=O)Nc1cc(Cl)ccc1Cl)=N\\NC(N)=S", "Potency": "inconclusive [inhibitor, single point]"}, {"compound": "O=C(NCc1ccc(F)cc1)c1ccccc1OCc1ccccc1", "Potency": "inconclusive [inhibitor, partial curve, poor fit]"}]}]}
